Some of the results follow.
Legend:
Assay in all cases: glycan array binding signal (z-score within array); higher = stronger binding
Details in all cases: glycan notation: IUPAC condensed, linker removed
[1] = molecular target: Neu5Ac(a2-3)Gal(b1-3)GlcNAc(b1-6)GalNAc
Procedure, shortened: (§1)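 The binding signal is a Z-score computed within each array. Data were drawn from 3228 arrays in the Consortium for Functional Glycomics database, restricted to those with a known protein sequence. Scores were averaged over arrays of the same protein sequence at different concentrations or buffers, and over linkers, and negative values can be taken as non-binding.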

[2] = molecular target: Neu5Ac(a2-3)Gal(b1-3)GlcNAc6S
Procedure, shortened: as §1

[3] = molecular target: Neu5Ac(a2-3)Gal(b1-3)[Fuc(a1-4)]GlcNAc
Procedure, shortened: as §1

[4] = molecular target: Neu5Ac(a2-3)Gal(b1-3)[Fuc(a1-4)]GlcNAc(b1-3)Gal(b1-3)[Fuc(a1-4)]GlcNAc
Procedure, shortened: as §1

[5] = molecular target: Neu5Ac(a2-3)Gal(b1-3)[Fuc(a1-4)]GlcNAc(b1-3)Gal(b1-4)[Fuc(a1-3)]GlcNAc
Procedure, shortened: as §1

[6] = molecular target: Neu5Ac(a2-3)Gal(b1-3)[GlcNAc(b1-6)]GalNAc
Procedure, shortened: as §1

[7] = molecular target: Neu5Ac(a2-3)Gal(b1-3)[Neu5Ac(a2-6)]GalNAc
Procedure, shortened: as §1

[8] = molecular target: Neu5Ac(a2-3)Gal(b1-3)[Neu5Ac(a2-6)]GlcNAc(b1-3)[Fuc(a1-3)[Gal(b1-4)]GlcNAc(b1-6)]Gal(b1-4)Glc
Procedure, shortened: as §1

[9] = molecular target: Neu5Ac(a2-3)Gal(b1-3)]Neu5Ac(a2-3)Gal(b1-4)]GlcNAc
Procedure, shortened: as §1

Neu5Ac(a2-3)Gal(b1-4)Glc = molecular target: Neu5Ac(a2-3)Gal(b1-4)Glc
Procedure, shortened: as §1

[10] = molecular target: Neu5Ac(a2-3)Gal(b1-4)GlcNAc
Procedure, shortened: as §1

[11] = molecular target: Neu5Ac(a2-3)Gal(b1-4)GlcNAc(b1-2)Man
Procedure, shortened: as §1

[12] = molecular target: Neu5Ac(a2-3)Gal(b1-4)GlcNAc(b1-2)Man(a1-3)[GlcNAc(b1-4)][Neu5Ac(a2-3)Gal(b1-4)GlcNAc(b1-2)Man(a1-6)]Man(b1-4)GlcNAc(b1-4)GlcNAc
Procedure, shortened: as §1

[13] = molecular target: Neu5Ac(a2-3)Gal(b1-4)GlcNAc(b1-2)Man(a1-3)[Neu5Ac(a2-3)Gal(b1-4)GlcNAc(b1-2)Man(a1-6)]Man(b1-4)GlcNAc(b1-4)GlcNAc
Procedure, shortened: as §1

[14] = molecular target: Neu5Ac(a2-3)Gal(b1-4)GlcNAc(b1-2)Man(a1-3)[Neu5Ac(a2-3)Gal(b1-4)GlcNAc(b1-2)Man(a1-6)]Man(b1-4)GlcNAc(b1-4)[Fuc(a1-6)]GlcNAc
Procedure, shortened: as §1

[15] = molecular target: Neu5Ac(a2-3)Gal(b1-4)GlcNAc(b1-2)Man(a1-3)[Neu5Ac(a2-6)Gal(b1-4)GlcNAc(b1-2)Man(a1-6)]Man(b1-4)GlcNAc(b1-4)GlcNAc
Procedure, shortened: as §1

[16] = molecular target: Neu5Ac(a2-3)Gal(b1-4)GlcNAc(b1-2)[Neu5Ac(a2-3)Gal(b1-4)GlcNAc(b1-4)]Man(a1-3)[GlcNAc(b1-4)][Neu5Ac(a2-3)Gal(b1-4)GlcNAc(b1-2)[Neu5Ac(a2-3)Gal(b1-4)GlcNAc(b1-6)]Man(a1-6)]Man(b1-4)GlcNAc(b1-4)GlcNAc
Procedure, shortened: as §1

[17] = molecular target: Neu5Ac(a2-3)Gal(b1-4)GlcNAc(b1-2)[Neu5Ac(a2-3)Gal(b1-4)GlcNAc(b1-4)]Man(a1-3)[GlcNAc(b1-4)][Neu5Ac(a2-3)Gal(b1-4)GlcNAc(b1-4)Man(a1-6)]Man(b1-4)GlcNAc(b1-4)GlcNAc
Procedure, shortened: as §1

[18] = molecular target: Neu5Ac(a2-3)Gal(b1-4)GlcNAc(b1-2)[Neu5Ac(a2-3)Gal(b1-4)GlcNAc(b1-6)]Man(a1-6)[Neu5Ac(a2-3)Gal(b1-4)GlcNAc(b1-2)Man(a1-3)][GlcNAc(b1-4)]Man(b1-4)GlcNAc(b1-4)GlcNAc
Procedure, shortened: as §1

[19] = molecular target: Neu5Ac(a2-3)Gal(b1-4)GlcNAc(b1-3)Gal
Procedure, shortened: as §1

[20] = molecular target: Neu5Ac(a2-3)Gal(b1-4)GlcNAc(b1-3)Gal(b1-3)GlcNAc
Procedure, shortened: as §1

[21] = molecular target: Neu5Ac(a2-3)Gal(b1-4)GlcNAc(b1-3)Gal(b1-4)GlcNAc
Procedure, shortened: as §1

[22] = molecular target: Neu5Ac(a2-3)Gal(b1-4)GlcNAc(b1-3)Gal(b1-4)GlcNAc(b1-2)Man(a1-3)[Neu5Ac(a2-3)Gal(b1-4)GlcNAc(b1-3)Gal(b1-4)GlcNAc(b1-2)Man(a1-6)]Man(b1-4)GlcNAc(b1-4)GlcNAc
Procedure, shortened: as §1

[23] = molecular target: Neu5Ac(a2-3)Gal(b1-4)GlcNAc(b1-3)Gal(b1-4)GlcNAc(b1-3)Gal(b1-4)GlcNAc
Procedure, shortened: as §1

[24] = molecular target: Neu5Ac(a2-3)Gal(b1-4)GlcNAc(b1-3)Gal(b1-4)GlcNAc(b1-3)Gal(b1-4)GlcNAc(b1-2)Man(a1-3)[Neu5Ac(a2-3)Gal(b1-4)GlcNAc(b1-3)Gal(b1-4)GlcNAc(b1-3)Gal(b1-4)GlcNAc(b1-2)Man(a1-6)]GalNAc
Procedure, shortened: as §1

[25] = molecular target: Neu5Ac(a2-3)Gal(b1-4)GlcNAc(b1-3)Gal(b1-4)GlcNAc(b1-3)GalNAc
Procedure, shortened: as §1

[26] = molecular target: Neu5Ac(a2-3)Gal(b1-4)GlcNAc(b1-3)Gal(b1-4)GlcNAc(b1-3)[Neu5Ac(a2-3)Gal(b1-4)GlcNAc(b1-3)Gal(b1-4)GlcNAc(b1-6)]GalNAc
Procedure, shortened: as §1

[27] = molecular target: Neu5Ac(a2-3)Gal(b1-4)GlcNAc(b1-3)Gal(b1-4)GlcNAc(b1-6)[Gal(b1-3)]GalNAc
Procedure, shortened: as §1

[28] = molecular target: Neu5Ac(a2-3)Gal(b1-4)GlcNAc(b1-3)Gal(b1-4)[Fuc(a1-3)]GlcNAc
Procedure, shortened: as §1

[29] = molecular target: Neu5Ac(a2-3)Gal(b1-4)GlcNAc(b1-3)GalNAc
Procedure, shortened: as §1

B1: MpAFP NterminalRI GFP (Marinomonas primoryensis) (protein)
chain: MSDNQFPFATLGNAIGFITKLDGSVTVQSIDGQERVLKLGDPIFFGETVLTGGSGSVTIAFVDGTDVVIGGDSIVEMTDEIYNTGDNEDLVADSSSEIDALQNAILAGDDPTLIQDAPAAGNTLADQQRVDVSIERNDNSAQAGFGVDTQSSLPTYGYDTDNGNGGQATEREYSAPSLSRTLNQSPLLEHHHHHH
glycan array binding signal (z-score) [1]: -0.009
glycan array binding signal (z-score) [2]: 0.339
glycan array binding signal (z-score) [3]: -0.583
glycan array binding signal (z-score) [4]: -0.313
glycan array binding signal (z-score) [5]: -0.29
glycan array binding signal (z-score) [6]: -0.478
glycan array binding signal (z-score) [7]: -0.42
glycan array binding signal (z-score) [8]: -0.298
glycan array binding signal (z-score) [9]: -0.531
glycan array binding signal (z-score) (Neu5Ac(a2-3)Gal(b1-4)Glc): -0.445
glycan array binding signal (z-score) [10]: 1.08
glycan array binding signal (z-score) [11]: 0.832
glycan array binding signal (z-score) [12]: -0.253
glycan array binding signal (z-score) [13]: -0.072
glycan array binding signal (z-score) [14]: -0.065
glycan array binding signal (z-score) [15]: 1.33
glycan array binding signal (z-score) [16]: -0.553
glycan array binding signal (z-score) [17]: -0.406
glycan array binding signal (z-score) [18]: 0.624
glycan array binding signal (z-score) [19]: -0.472
glycan array binding signal (z-score) [20]: -0.607
glycan array binding signal (z-score) [21]: -0.045
glycan array binding signal (z-score) [22]: -0.068
glycan array binding signal (z-score) [23]: -0.515
glycan array binding signal (z-score) [24]: 2.98
glycan array binding signal (z-score) [25]: -0.284
glycan array binding signal (z-score) [26]: 0.074
glycan array binding signal (z-score) [27]: -0.133
glycan array binding signal (z-score) [28]: -0.372
glycan array binding signal (z-score) [29]: -0.439
